Data published in PubChem BioAssay (NCATS).
The inconclusive results got no clear call from the source; some entries with a clear call stand among them for comparison. A potency beside an inconclusive call is a rough fit, not a confirmed value. Active and inactive are the calls of the source. Calls follow the shape of the dose curve; as a rule, active = well fitted curve in the direction sought with a large enough effect; inconclusive = small, poorly fitted or top-dose-only effect, or another doubt; inactive = no such curve, though single readings can be large; an effect the other way counts as inactive or inconclusive.

Key:
[1] = P-glycoprotein substrates identified in KB-8-5-11 adenocarcinoma cell line, qHTS therapeutic library screen (AID 1346987); also: nearly all actives have a fitted effect of over 65% in size; as to activity change, negative = cytotoxicity: % is scaled to controls: 0 for no effect and ±100 for the full control effect
Procedure, shortened: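 Steps: plate 500 KB-8-5-11 cells/well in DMEM + 10% FCS (colchicine removed); pin compounds in dose-response; incubate 72 h, 37 degree C, 5% CO2; add CellTiter-Glo, 5 min; read luminescence.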

[2] = Primary qHTS for inhibitors of nuclear receptor binding SET domain protein 2 (NSD2) in an isogenic RCH-ACV NSD2 p.E1099K mutant (9B) (AID 1645876); also: nearly all actives have a fitted effect of over 70% in size
[3] = system: CRL-7250; experiment: Cytotoxic Profiling of Annotated Libraries Using Quantitative High-Throughput Screening (AID 1296008); conditions: Five cell lines viability, CellTiter-Glo ATP luminescence, 48-72 h; max response: active compounds read low; also: nearly all actives have a fitted effect of over 60% in size; as to max response: % is scaled to controls: 0 for no effect and ±100 for the full control effect
Procedure, shortened: (§1)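 Compounds were pin-transferred onto cells and incubated 48 or 72 hr at 37 degree Celsius, 95% humidity. CellTiter-Glo was added, plates sat 10 min at room temperature, then ATP-coupled luminescence was imaged as the viability read-out.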

[4] = system: NIH3T3; experiment: as above; conditions: Five cell lines viability, CellTiter-Glo ATP luminescence, 48-72 h; max response: active compounds read low
Procedure, shortened: as §1

[5] = system: C33A; experiment: Primary qHTS to identify gynecologic anti-cancer compounds using libraries of approved drugs and bioactive compounds (AID 1345084); conditions: Gynecologic cancer cell panel viability, ATPlite luminescence, 48 h; series mostly up to 57.5 µM; also: nearly all actives have a fitted effect of over 55% in size; as to activity change, negative = cytotoxicity: % is scaled to controls: 0 for no effect and ±100 for the full control effect
Procedure, shortened: (§2)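 48 h compound exposure at 37 C, 5% CO2; five-point qHTS. ATPlite luminescence readout of cell ATP.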

[6] = system: CAOV3; experiment: as above; conditions: Gynecologic cancer cell panel viability, ATPlite luminescence, 48 h; activity change, negative = cytotoxicity: at 57.5 µM (top of the series)
Procedure, shortened: as §2

[7] = system: CASKI; experiment: as above; conditions: Gynecologic cancer cell panel viability, ATPlite luminescence, 48 h; series mostly up to 57.5 µM
Procedure, shortened: as §2

[8] = system: Es-2; experiment: as above; conditions: Gynecologic cancer cell panel viability, ATPlite luminescence, 48 h; series mostly up to 57.5 µM
Procedure, shortened: as §2

[9] = system: Hek293T; experiment: as above; conditions: Gynecologic cancer cell panel viability, ATPlite luminescence, 48 h, control line for the selectivity index; activity change, negative = cytotoxicity: at 57.5 µM (top of the series) unless noted
Procedure, shortened: as §2

[10] = system: JEG-3; experiment: as above; conditions: Gynecologic cancer cell panel viability, ATPlite luminescence, 48 h; series mostly up to 57.5 µM
Procedure, shortened: as §2

[11] = system: OV90; experiment: as above; conditions: Gynecologic cancer cell panel viability, ATPlite luminescence, 48 h; series mostly up to 57.5 µM
Procedure, shortened: as §2

[12] = system: PA-1; experiment: as above; conditions: Gynecologic cancer cell panel viability, ATPlite luminescence, 48 h; series mostly up to 57.5 µM
Procedure, shortened: as §2

[13] = system: SKOV3; experiment: as above; conditions: Gynecologic cancer cell panel viability, ATPlite luminescence, 48 h; series mostly up to 57.5 µM
Procedure, shortened: as §2

[14] = system: Tov-21-G; experiment: as above; conditions: Gynecologic cancer cell panel viability, ATPlite luminescence, 48 h; activity change, negative = cytotoxicity: at 57.5 µM (top of the series) unless noted
Procedure, shortened: as §2

[15] = system: Tov112D; experiment: as above; conditions: Gynecologic cancer cell panel viability, ATPlite luminescence, 48 h; series mostly up to 57.5 µM
Procedure, shortened: as §2

[16] = system: Zika virus NS2B-NS3 protease (unlinked complex); experiment: Primary screen GU Rhodamine qHTS for Zika virus inhibitors: Unlinked NS2B-NS3 protease assay (AID 1347159); also: nearly all actives have a fitted effect of over 60% in size
Procedure, shortened: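 Compounds, tested up to 114 microM, were incubated for 15 minutes with 25 nM unlinked NS2B-NS3 protease at pH 8.0. Cleavage of 1.5 microM Rhodamine110 substrate was then followed by fluorescence for 15 minutes.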

[17] = system: Zika virus NS2B-NS3 protease (linked construct); experiment: Primary screen NINDS Rhodamine qHTS for Zika virus inhibitors (AID 1347160); conditions: activity change, negative = inhibition: at 57.1 µM (top of the series) unless noted; also: nearly all actives have a fitted effect of over 55% in size; as to activity change, negative = inhibition: % is scaled to controls: 0 for no effect and ±100 for the full control effect
Procedure, shortened: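 Percent inhibition, normalized to uninhibited and enzyme-free controls, is fitted to a 4-parameter Hill equation. Fluorescence change comes from a 15-min cleavage of 1.5 microM bis-peptide Rhodamine110 substrate by 25 nM linked NS2B-NS3 at room temperature.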

[18] = Primary qHTS for inhibitors of nuclear receptor binding SET domain protein 2 (NSD2) in an RCH-ACV wild type WT cells (2C) (AID 1645877); conditions: activity change, negative = cell killing: at 44.9 µM (top of the series) unless noted; also: nearly all actives have a fitted effect of over 70% in size
[19] = Primary fluorescence-based thiol-reactive (MSTI) qHTS assay for identification of artifact compounds. (AID 1845221);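 also: thiol-reactive compounds lower the probe fluorescence signal; nearly all actives have a fitted effect of over 65% in size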
Procedure, shortened: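 First, 4 uM MSTI in 2% DMSO/PBS pH 7.4 was dispensed; next, compounds were added; then plates sat 1 h at room temperature without light. Finally, emission at 598 nm was recorded.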
Potency is read from the fitted curve at half-maximal effect; tags tell the direction and shape of the fitted curve.

CN1CCN(CCC(=O)N2c3ccccc3Sc3ccc(C(F)(F)F)cc32)CC1
active: Potency [2] 15 µM | Potency [3] 15 µM | Potency [6] 22.4 µM | Potency [11] 15.8 µM
inconclusive: Potency [1] 20.6 µM [inhibitor, single point] | Potency [4] 29.9 µM [inhibitor, single point] | Potency [5] 22.4 µM [cytotoxic, partial curve, poor fit] | Potency [7] 31.6 µM [cytotoxic, single point] | Potency [8] 39.8 µM [cytotoxic, single point] | Potency [9] 28.2 µM [cytotoxic, single point] | Potency [10] 39.8 µM [cytotoxic, single point] | Potency [12] 35.5 µM [cytotoxic, single point] | Potency [13] 22.4 µM [cytotoxic, partial curve, poor fit] | Potency [14] 31.6 µM [cytotoxic, single point] | Potency [15] 15.8 µM [cytotoxic, partial curve]

CC(=O)NO
inactive: Potency [1] | Potency [2] | max response [4] 2.47%
inconclusive: Potency [3] 0.0188 µM [inhibitor, full curve, poor fit]

CN1c2c(nc(N)[nH]c2=O)NC[C@@H]1CNc1ccc(C(=O)N[C@@H](CCC(=O)O)C(=O)O)cc1
inconclusive: Potency [16] 89.1 µM [inhibitor, single point] | Potency [3] 18.4 µM [inhibitor, single point] | Potency [4] 29.1 µM [inhibitor, single point] | Potency [5] 39.8 µM [cytotoxic, single point] | Potency [6] 31.6 µM [cytotoxic, single point] | Potency [7] 39.8 µM [cytotoxic, single point] | Potency [8] 35.5 µM [cytotoxic, single point] | Potency [9] 39.8 µM [cytotoxic, single point] | Potency [10] 39.8 µM [cytotoxic, single point] | Potency [11] 39.8 µM [cytotoxic, single point] | Potency [12] 39.8 µM [cytotoxic, single point] | Potency [13] 39.8 µM [cytotoxic, single point] | Potency [14] 35.5 µM [cytotoxic, single point] | Potency [15] 28.2 µM [cytotoxic, single point]
inactive: Potency [17]

N#CSc1cc(SC#N)c(N)nc1N
inconclusive: Potency [1] 4.91 µM [inhibitor, single point] | Potency [2] 6.15 µM [inhibitor, single point] | Potency [18] 4.35 µM [inhibitor, single point] | Potency [19] 5.66 µM [inhibitor, partial curve, poor fit] | Potency [3] 6.93 µM [inhibitor, single point] | Potency [4] 7.78 µM [inhibitor, single point] | Potency [5] 7.94 µM [cytotoxic, single point] | Potency [8] 11.2 µM [cytotoxic, single point] | Potency [9] 3.98 µM [cytotoxic, single point] | Potency [12] 11.2 µM [cytotoxic, single point] | Potency [15] 4.47 µM [cytotoxic, single point]
inactive: activity change, negative = cytotoxicity [13] -0.394% [at 11.6 µM]

Cn1nnc(-c2ccc(-c3ccc(N4C[C@H](COP(=O)(O)O)OC4=O)cc3F)cn2)n1
inconclusive: Potency [1] 6.51 µM [inhibitor, partial curve] | Potency [2] 0.578 µM [inhibitor, full curve] | Potency [18] 0.817 µM [inhibitor, full curve] | Potency [3] 29.1 µM [inhibitor, single point] | Potency [4] 0.0231 µM [inhibitor, full curve, poor fit] | Potency [5] 3.55 µM [cytotoxic, full curve] | Potency [8] 35.5 µM [cytotoxic, single point] | Potency [9] 35.5 µM [cytotoxic, single point] | Potency [10] 17.8 µM [cytotoxic, single point] | Potency [12] 8.91 µM [cytotoxic, full curve, poor fit] | Potency [13] 5.62 µM [cytotoxic, full curve, poor fit] | Potency [14] 39.8 µM [cytotoxic, single point] | Potency [15] 20 µM [cytotoxic, partial curve]
inactive: Potency [17]
active: Potency [7] 12.6 µM | Potency [11] 20 µM

Cc1ccc(C)c(-c2cc(C(F)(F)F)nn2-c2ccc(S(N)(=O)=O)cc2)c1
active: Potency [18] 25.8 µM
inconclusive: Potency [17] 39.8 µM [inhibitor, single point] | Potency [3] 29.1 µM [inhibitor, single point] | Potency [4] 23.1 µM [inhibitor, partial curve] | Potency [5] 39.8 µM [cytotoxic, single point] | Potency [6] 39.8 µM [cytotoxic, single point] | Potency [8] 39.8 µM [cytotoxic, single point] | Potency [9] 39.8 µM [cytotoxic, single point] | Potency [10] 1.26 µM [rising, partial curve, poor fit] | Potency [11] 39.8 µM [cytotoxic, single point] | Potency [12] 39.8 µM [cytotoxic, partial curve, poor fit] | Potency [13] 39.8 µM [cytotoxic, single point] | Potency [14] 39.8 µM [cytotoxic, single point] | Potency [15] 35.5 µM [cytotoxic, single point]
inactive: Potency [19] | Potency [7]

O=C(N/N=C/c1ccc([N+](=O)[O-])o1)c1ccc(O)cc1
inconclusive: Potency [1] 8.8 µM [inhibitor, single point] | Potency [3] 33.5 µM [inhibitor, single point] | Potency [4] 23.7 µM [inhibitor, single point] | Potency [5] 39.8 µM [cytotoxic, single point] | Potency [6] 25.1 µM [cytotoxic, single point] | Potency [7] 31.6 µM [cytotoxic, single point] | Potency [8] 25.1 µM [cytotoxic, single point] | Potency [14] 39.8 µM [cytotoxic, single point] | Potency [15] 31.6 µM [cytotoxic, single point]
active: Potency [9] 25.1 µM | Potency [12] 20 µM | Potency [13] 14.1 µM

C[C@@H]1O[C@@H](O[C@H]2[C@H](O)[C@@H](O)[C@H](O[C@H]3[C@H](O[C@H]4CC[C@@]5(C)C(=CC[C@@H]6C5CC[C@]5(C)[C@@H]7[C@H](C[C@@H]65)O[C@]5(CC[C@@](C)(CO[C@@H]6O[C@H](CO)[C@@H](O)[C@H](O)[C@H]6O)O5)[C@H]7C)C4)O[C@H](CO)[C@@H](O)[C@@H]3O)O[C@@H]2CO)[C@H](O)[C@H](O)[C@H]1O (stereo partly drawn)
inactive: activity change, negative = cytotoxicity [5] 1.06% [at 11.6 µM] | activity change, negative = cytotoxicity [7] 21.1% [at 11.6 µM] | activity change, negative = cytotoxicity [9] -9.56% [at 11.6 µM]
inconclusive: Potency [2] 1.54 µM [inhibitor, partial curve, poor fit] | Potency [19] 2.53 µM [inhibitor, partial curve] | Potency [3] 3.1 µM [inhibitor, partial curve] | Potency [4] 2.19 µM [inhibitor, partial curve] | Potency [13] 1 µM [cytotoxic, partial curve, poor fit] | Potency [14] 0.355 µM [rising, partial curve]
active: Potency [18] 2.18 µM

[O-][n+]1cccc(/C(Cl)=N/OC[C@@H](O)CN2CCCCC2)c1
inactive: max response [3] 4.98% | max response [4] 0.672%

CC(=O)C1=CCC2C3CC=C4CC(O)CC(O)C4(C)C3C(O)CC12C (stereo not drawn)
inconclusive: Potency [1] 12.8 µM [inhibitor, single point] | Potency [2] 12.7 µM [inhibitor, single point] | Potency [18] 20.1 µM [inhibitor, single point] | Potency [3] 20.2 µM [inhibitor, single point] | Potency [5] 28.2 µM [cytotoxic, single point] | Potency [7] 31.6 µM [rising, single point] | Potency [8] 28.2 µM [cytotoxic, partial curve, poor fit] | Potency [13] 1.12 µM [rising, partial curve, poor fit] | Potency [14] 28.2 µM [cytotoxic, single point] | Potency [15] 28.2 µM [cytotoxic, single point]
inactive: outcome [4]

C/C=C1\[C@H](OC2OC(COC3OC(CO)C(O)C(O)C3O)C(O)C(O)C2O)OC=C(C(=O)OC)[C@H]1CC(=O)OCCc1ccc(O)cc1 (stereo partly drawn)
inactive: Potency [18] | max response [3] -3.04% | max response [4] -38.2% | Potency [6] | Potency [9]

CCOC(=O)C1=C(C)NC(C)=C(C(=O)OC)C1c1cccc(Cl)c1Cl (stereo not drawn)
inactive: Potency [7] | Potency [10]
inconclusive: Potency [2] 33.5 µM [inhibitor, single point] | Potency [18] 23.7 µM [inhibitor, single point] | Potency [3] 26.6 µM [inhibitor, single point] | Potency [4] 29.9 µM [inhibitor, single point]

CC(=O)N1CCN(C(=O)Cc2ccc(Nc3ncc(F)c(Nc4ccc(C(=O)Nc5ccccc5Cl)cc4)n3)cc2)CC1
inconclusive: Potency [1] 18.4 µM [inhibitor, single point] | Potency [16] 14.1 µM [inhibitor, full curve] | Potency [17] 39.8 µM [inhibitor, single point] | Potency [3] 20.6 µM [inhibitor, single point] | Potency [4] 29.1 µM [inhibitor, single point] | Potency [5] 22.4 µM [cytotoxic, single point] | Potency [7] 39.8 µM [cytotoxic, single point] | Potency [8] 39.8 µM [cytotoxic, single point] | Potency [9] 14.1 µM [cytotoxic, partial curve]
active: Potency [18] 2.05 µM | Potency [6] 31.6 µM | Potency [12] 11.2 µM | Potency [13] 22.4 µM | Potency [14] 25.1 µM

NS(=O)(=O)c1cc(C(=O)O)cc(N2CCCC2)c1Oc1ccccc1
inconclusive: Potency [18] 33.5 µM [inhibitor, partial curve, poor fit] | Potency [3] 33.5 µM [inhibitor, partial curve, poor fit] | Potency [13] 5.01 µM [rising, single point]
inactive: max response [4] -1.53% | Potency [6]

CCCCC(CC)COC(=O)c1ccccc1C(=O)O (stereo not drawn)
inactive: max response [3] -9.5% | max response [4] -2.08% | Potency [13] | Potency [15]
inconclusive: Potency [18] 35.1 µM [inhibitor, partial curve, poor fit]
